The supplement of paper PMC3334620
In all, about 33,000 sequences were measured (“E-score (-0.5 to 0.5)”: median about -0.012, highest 2% from about 0.29 on). This is one part of the list.

What follows are sequences tested against T1, Ybr033w (UniProt P38073) (assay: PBM E-score (8-mer binding enrichment) (E-score (-0.5 to 0.5)); higher = stronger / more preferred TF binding; most listed sequences are background and not binding sites). Conditions: protein concentration: 200 nM; construct: GST-full length.
T1 sequence: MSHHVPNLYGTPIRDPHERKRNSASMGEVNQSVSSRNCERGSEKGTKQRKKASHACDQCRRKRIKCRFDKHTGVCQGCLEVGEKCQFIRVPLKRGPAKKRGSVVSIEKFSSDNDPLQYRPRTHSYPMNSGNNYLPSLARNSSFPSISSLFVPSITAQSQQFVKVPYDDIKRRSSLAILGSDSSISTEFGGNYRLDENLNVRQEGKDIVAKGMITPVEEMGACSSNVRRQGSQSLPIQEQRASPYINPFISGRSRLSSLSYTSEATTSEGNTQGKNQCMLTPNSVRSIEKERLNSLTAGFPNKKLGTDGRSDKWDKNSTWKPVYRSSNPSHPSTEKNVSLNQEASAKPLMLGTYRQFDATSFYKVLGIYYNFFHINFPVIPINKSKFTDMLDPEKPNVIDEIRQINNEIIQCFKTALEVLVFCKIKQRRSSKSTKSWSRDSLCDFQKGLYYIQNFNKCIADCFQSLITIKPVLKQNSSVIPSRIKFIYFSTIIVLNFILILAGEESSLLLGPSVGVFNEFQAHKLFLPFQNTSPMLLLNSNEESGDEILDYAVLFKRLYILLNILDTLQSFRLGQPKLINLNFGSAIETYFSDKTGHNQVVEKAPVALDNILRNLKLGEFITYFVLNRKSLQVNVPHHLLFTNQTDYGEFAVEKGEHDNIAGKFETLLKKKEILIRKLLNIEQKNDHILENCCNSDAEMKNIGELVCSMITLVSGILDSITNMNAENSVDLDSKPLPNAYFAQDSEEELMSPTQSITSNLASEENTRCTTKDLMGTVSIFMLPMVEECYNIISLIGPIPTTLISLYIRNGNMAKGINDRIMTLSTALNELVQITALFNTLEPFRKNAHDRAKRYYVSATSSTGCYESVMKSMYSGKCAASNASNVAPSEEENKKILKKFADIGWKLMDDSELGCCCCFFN
Procedure, shortened: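 Universal all-10-mer Agilent arrays, double-stranded by primer extension on fresh or once-stripped slides, were probed with about 100-200 nM GST-tagged yeast transcription factors made by PURExpress. Fluorescent anti-GST detected bound protein, and masliner normalised the scans. E-scores from the Universal PBM Analysis Suite were given to each ungapped eight-base word pooled with its reverse complement.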

Point of comparison: AGACCAAG, “PBM E-score” value 0.152. Against it:
- CCAAGGTC — lower, -0.0654
- AACGTTCA — lower, -0.15
- GGTAGGAA — lower, 0.0614
- ATCAAAAT — higher, 0.159
- CATGCGTA — lower, 0.125
- AGGGCATC — lower, -0.156
- AATACTAA — higher, 0.247
- TGCACGCA — lower, -0.0498
- CCAAGAAA — higher, 0.167
- CCGTCGCC — lower, -0.247
- ACGGACTA — lower, 0.00803
- GGTGAATA — lower, 0.127
- AAACAGAC — lower, 0.091
- ATCTGATC — lower, 0.0616
- CGCTTAAG — lower, -0.101
- TAACCGAA — lower, -0.0314
- CGATTCTA — lower, 0.0437
- CTGCCAAA — lower, -0.00656
- CTACCGCC — lower, -0.149
- AGTCCACT — lower, -0.0622
- AAGAAGGT — lower, 0.0392
- AAAAGTCC — lower, 0.138
- AAGAACGG — lower, -0.182
- AGAAGGCC — lower, -0.018
- AAGTCATC — lower, -0.154
- ACCGGTAC — lower, -0.199
- GAATGCAA — higher, 0.153
- TGGAGGAA — lower, 0.102
- CGATAAGC — lower, -0.167
- AGATAGGG — lower, -0.205
- GAAAATGA — lower, 0.085
- AATAATGA — higher, 0.247
- ATGCGAAT — lower, 0.105
- CCTTAGCC — lower, -0.172
- TCTAAAGA — lower, 0.0913
- ACGGGCAC — lower, -0.232
- CCAGTCAA — lower, -0.0612
- AACGGATA — higher, 0.227
- ACTCCGGA — higher, 0.249
- AACCTTAT — lower, 0.0299
- AATAGATC — higher, 0.251
- CGCGAGGC — lower, -0.0897
- AGAGCAAG — lower, 0.124
- ACACGAGT — lower, -0.135
- GGCCACCA — lower, -0.11
- CGTCCATA — lower, -0.042
- GCGGTATA — lower, 0.0766
- CGGAATTA — higher, 0.407
- CTATATAC — higher, 0.26
- CCAACAGG — lower, -0.121
- CCCGTTCA — lower, -0.202
- ACCTGATA — lower, 0.107
- TTGACAAA — higher, 0.23
- AAAGGGGG — lower, -0.306
- GTGGCTAA — lower, 0.0232
- ACAATCGT — lower, -0.172
- GGTACTAA — lower, 0.125
- CCAAGCGG — lower, -0.209
- ACGATCCC — lower, -0.257
- GGAAGTTA — lower, 0.118
- AGGCATCC — lower, -0.174
- ATTTCCCA — higher, 0.236
- ATAACACG — lower, 0.127
- GGTTCATA — lower, 0.0724
- CCCCCCGG — lower, -0.445
- AATCAAAC — higher, 0.176
- CCCTGTGA — lower, -0.0983
- CCTGTTAC — lower, 0.0689
- CGAACAGC — lower, -0.123
- CTGTGAAG — lower, 0.0203
- GTTGCTAA — higher, 0.257
- CGATCTAC — lower, -0.0159
- ATTGCAAG — lower, 0.115
- CCCGAAAG — lower, -0.0796
- CATGTGGC — lower, -0.0578
- AGGCAGAA — lower, 0.0336
- AAGGCTAT — lower, -0.028
- AGATCACA — lower, -0.114
- CCACTTAC — lower, 0.0573
- CTAGCCGC — lower, -0.0909
- AGAGATCC — lower, 0.00324
- ACTACAAT — higher, 0.169
- GGCGCGCC — lower, -0.112
- AACTGCTC — lower, -0.0412
- CCTGGGGC — lower, -0.307
- ACATGAAT — lower, 0.102
- CGCTCTCC — lower, -0.275
- CCCCTCCA — lower, -0.141
- CTATAACA — lower, -0.0609
- ACGATGGG — lower, -0.0786
- AGATTCCC — lower, -0.116
- CATTTCAC — lower, 0.0384
- TAATCAGA — higher, 0.18
- GCCCTCAC — lower, -0.234
- CTCCGCAC — lower, -0.0452
- CATCTGCC — lower, -0.162
- ACGCGCCC — lower, -0.17
- GTTGGCTA — lower, -0.0174
- AACAGATC — lower, 0.131
- GGGTTACC — lower, -0.288
- CCAGTCCG — lower, -0.253
- CCATTATC — lower, 0.131
- ATAGCCTA — lower, 0.0325
- ATAACGGA — lower, 0.116
- AGGCTTAT — lower, -0.0296
- GCTGCTAA — lower, 0.108
- AATACAGG — lower, -0.0547
- CGTGCAAC — lower, -0.111
- GTCTTAGA — lower, -0.0985
- CAATTGTA — lower, 0.0127
- ATCAGATC — lower, -0.0139
- ACAACCCC — lower, -0.196
- GATGGTAC — lower, 0.0342
- AGACTACC — lower, 0.028
- GCATAGCC — lower, -0.292
- ATCAAACC — lower, 0.109
- CGTGGATA — lower, 0.116
- AACGAGTA — higher, 0.169
- AGCACACT — lower, 0.0632
- ACGTTCAG — lower, -0.207
- GCGGTACA — lower, -0.108
- ATCCAGTC — lower, 0.0535
- AAGCGGTC — lower, -0.0595
- ATTCCTCC — higher, 0.169
- AAGTGATT — higher, 0.2
- CTGTTCGA — lower, -0.0495
- GGGTGAAC — lower, 0.00071
- CTAACGAA — lower, 0.0607
- ATAGACCG — lower, -0.115
- GACTTTTA — lower, 0.0661
- CTGTTGCC — lower, -0.136
- CTTCGCTC — lower, -0.0737
- CAGCTGGG — lower, -0.128
- GGTTAATA — higher, 0.209
- GAAATCCA — lower, 0.108
- CTGCCGTC — lower, -0.295
- ATACGCGG — lower, 0.0172
- AGGGACTG — lower, -0.18
- GCAAAAGA — lower, -0.0441
- GTGTTTAA — higher, 0.17
- ACGATTAG — lower, 0.134
- ATAGCCCG — lower, -0.171
- ATAGCTCC — lower, -0.159
- CAAAAGTC — lower, 0.0859
- CACTCCAA — lower, -0.0547
- ATGGGAAA — lower, 0.0136
- GTGTCTTA — lower, -0.0217
- ACCATAGT — lower, 0.13
- GCTATACA — lower, 0.0601
- CGCCATCC — lower, -0.111
- GTAAACAA — higher, 0.298
- CTTTCTTA — lower, -0.051
- AAGATCCA — lower, 0.0702
- GTTCAATA — higher, 0.179
- CTTCCGGA — higher, 0.274
- GCGTAATA — higher, 0.188
- GACTCGGC — lower, -0.236
- AGTACGCG — lower, 0.137
- GAATAGTC — lower, -0.0353
- TATCCCCA — lower, -0.0488
- ATGGTATA — lower, 0.0634
- GGAAAGAA — lower, 0.0259
- ACTGGGTC — lower, -0.276
- TGGCGCCA — lower, 0.0225
- CCTGGGAC — lower, -0.349
- CGGGGTCA — lower, -0.176
- TGCGCCAA — lower, 0.0304
- AACCTCTG — lower, -0.0697
- AACAAGTA — lower, 0.132
- CCCTCCCA — lower, -0.146
- GCTTACGA — lower, -0.022
